The IC50 comes from the fitted curve, where viability falls to half of the control; a fit beyond the top or the lowest dose is shown as a bound at that dose. For AUC the same curve is integrated over the 256-fold range of doses and scaled to a fraction; values near 1 show little effect. For part of these data: The top dose, if marked as inferred, was derived from the fitted curves, not read from the paper.
Legend:
Experiment in all cases: Viability of human cancer cell lines after 72 h of drug (GDSC screen)
STF-62247 = compound: Cc1cccc(Nc2nc(-c3ccncc3)cs2)c1 [STF-62247]; conditions: top dose 10.24 µM; top dose inferred
Method: (§1)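 Human cancer cell lines in 384-well plates, medium with 10% serum, drug for 72 h over a 256-fold dose range (nine 2-fold or five 4-fold steps up to the top dose). Adherent lines were fixed and stained with the nucleic acid dye Syto60, suspension lines read with resazurin; signal relative to control wells, capped at 0 and 100%. One two-parameter sigmoid per drug and line, fitted in a mixed model over all curves with the slope shared within a line.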

Paclitaxel = compound: CC(=O)O[C@H]1C(=O)[C@@]2(C)[C@H]([C@H](OC(=O)c3ccccc3)[C@]3(O)C[C@H](OC(=O)[C@H](O)[C@@H](NC(=O)c4ccccc4)c4ccccc4)C(C)=C1C3(C)C)[C@]1(OC(C)=O)CO[C@@H]1C[C@@H]2O [Paclitaxel]; conditions: top dose 0.1024 µM
Method: as §1

CX-5461 = compound: Cc1cnc(CNC(=O)c2c(=O)c3ccc(N4CCCN(C)CC4)nc3n3c2sc2ccccc23)cn1 [CX-5461]; conditions: top dose 10.24 µM; top dose inferred
Method: as §1

CP724714 = compound: COCC(=O)NC/C=C/c1ccc2ncnc(Nc3ccc(Oc4ccc(C)nc4)c(C)c3)c2c1 [CP724714]; conditions: top dose 10.24 µM; top dose inferred
Method: as §1

Obatoclax mesylate = compound: COC1=CC(c2cc3ccccc3[nH]2)=N/C1=C\c1[nH]c(C)cc1C [Obatoclax mesylate]; conditions: top dose 16 µM
Method: as §1

Bortezomib = compound: CC(C)C[C@H](NC(=O)[C@H](Cc1ccccc1)NC(=O)c1cnccn1)B(O)O [Bortezomib]; conditions: top dose 0.02 µM
Method: as §1

Row | Cell Line | AUC (STF-62247) | IC50 (STF-62247) [nM] | AUC (Paclitaxel) | IC50 (Paclitaxel) [nM] | AUC (CX-5461) | IC50 (CX-5461) [nM] | AUC (CP724714) | IC50 (CP724714) [nM] | AUC (Obatoclax mesylate) | IC50 (Obatoclax mesylate) [nM] | AUC (Bortezomib) | IC50 (Bortezomib) [nM]
1 | MEG-01 (chronic myeloid leukaemia, suspension) | 0.94 | > 10200 | 0.753 | 32.3 | 0.829 | 5870 | 0.988 | > 10200 | 0.358 | 415 | 0.657 | 3.3
2 | MFH-ino (soft tissue, adherent) | 0.982 | > 10200 | 0.376 | 2.73 | 0.935 | > 10200 | 0.98 | > 10200 | 0.309 | 264 | 0.347 | 0.434
3 | MFM-223 (breast, adherent) | 0.982 | > 10200 | 0.986 | > 102 | 0.987 | > 10200 | 0.982 | > 10200 | 0.62 | 2130 | 0.791 | 8.9
4 | MHH-NB-11 (neuroblastoma, adherent) | 0.98 | > 10200 | 0.881 | > 102 | 0.231 | 96.7 | 0.972 | > 10200 | 0.751 | 5710 | 0.631 | 2.99
5 | MHH-PREB-1 (B-cell leukaemia, suspension) | 0.866 | 7620 | 0.602 | 11.8 | 0.765 | 3380 | 0.989 | > 10200 | 0.146 | 93.9 | 0.744 | 5.68
6 | MLMA (hairy cell leukaemia, semi-adherent) | 0.943 | > 10200 | 0.83 | 65.3 | 0.873 | 10000 | 0.984 | > 10200 | 0.227 | 159 | 0.81 | 10.6
7 | MMAC-SF (melanoma, adherent) | 0.987 | > 10200 | 0.754 | 35.8 | 0.987 | > 10200 | 0.987 | > 10200 | 0.166 | 90.5 | 0.225 | 0.189
8 | MN-60 (B-cell leukaemia, suspension) | 0.978 | > 10200 | 0.98 | > 102 | 0.705 | 2480 | 0.985 | > 10200 | 0.258 | 196 | 0.802 | 10.3
9 | MONO-MAC-6 (acute myeloid leukaemia, suspension) | 0.911 | > 10200 | 0.717 | 27.4 | 0.978 | > 10200 | 0.959 | > 10200 | 0.392 | 494 | 0.586 | 2.18
10 | MPP-89 (mesothelioma, adherent) | 0.977 | > 10200 | 0.943 | > 102 | 0.982 | > 10200 | 0.981 | > 10200 | 0.383 | 430 | 0.521 | 1.45
11 | MRK-nu-1 (breast, suspension) | 0.872 | 8380 | 0.396 | 3.4 | 0.701 | 2220 | 0.99 | > 10200 | 0.147 | 91 | 0.734 | 5.42
12 | MS-1 (small cell lung carcinoma, suspension) | 0.991 | > 10200 | 0.845 | 62.6 | 0.672 | 1820 | 0.958 | > 10200 | 0.394 | 530 | 0.979 | > 20
13 | MSTO-211H (mesothelioma, adherent) | 0.988 | > 10200 | 0.981 | > 102 | 0.991 | > 10200 | 0.976 | > 10200 | 0.656 | 2580 | 0.86 | 14.3
14 | MY-M12 (leukaemia, suspension) | 0.929 | > 10200 | 0.534 | 8.04 | 0.316 | 182 | 0.789 | 5180 | 0.318 | 288 | 0.438 | 0.827
15 | MZ1-PC (pancreas, adherent) | 0.977 | > 10200 | 0.312 | 1.66 | 0.676 | 2260 | 0.942 | > 10200 | 0.242 | 146 | 0.637 | 3.29
16 | MZ2-MEL (melanoma, adherent) | 0.982 | > 10200 | 0.742 | 36 | 0.905 | > 10200 | 0.957 | > 10200 | 0.105 | < 62.5 | 0.354 | 0.457
17 | MZ7-mel (melanoma, adherent) | 0.972 | > 10200 | 0.676 | 20.2 | 0.935 | > 10200 | 0.978 | > 10200 | 0.128 | < 62.5 | 0.491 | 1.18
18 | Mo-T (hairy cell leukaemia, suspension) | 0.969 | > 10200 | 0.987 | > 102 | 0.788 | 4610 | 0.918 | > 10200 | 0.583 | 1690 | 0.674 | 3.85
19 | NALM-6 (B-cell leukaemia, suspension) | 0.85 | 5920 | 0.557 | 8.91 | 0.349 | 264 | 0.957 | > 10200 | 0.042 | < 62.5 | 0.641 | 2.85
20 | NB1 (neuroblastoma, semi-adherent) | 0.91 | > 10200 | 0.691 | 23.3 | 0.596 | 1200 | 0.903 | > 10200 | 0.391 | 486 | 0.762 | 7.88
21 | NB5 (neuroblastoma, adherent) | 0.986 | > 10200 | 0.924 | > 102 | 0.735 | 3040 | 0.964 | > 10200 | 0.539 | 1280 | 0.591 | 2.22

Row | Cell Line | AUC (STF-62247) | IC50 (STF-62247) [nM] | AUC (Paclitaxel) | IC50 (Paclitaxel) [nM] | AUC (CX-5461) | IC50 (CX-5461) [nM] | AUC (CP724714) | IC50 (CP724714) [nM] | AUC (Obatoclax mesylate) | IC50 (Obatoclax mesylate) [nM] | AUC (Bortezomib) | IC50 (Bortezomib) [nM]
22 | NB6 (neuroblastoma, adherent) | 0.983 | > 10200 | 0.881 | > 102 | 0.908 | > 10200 | 0.972 | > 10200 | 0.624 | 2390 | 0.779 | 10.2
23 | NB7 (neuroblastoma, adherent) | 0.973 | > 10200 | 0.98 | > 102 | 0.846 | 7950 | 0.803 | 5330 | 0.443 | 696 | 0.734 | 6.03
24 | NB10 (neuroblastoma, adherent) | 0.988 | > 10200 | 0.988 | > 102 | 0.925 | > 10200 | 0.982 | > 10200 | 0.642 | 2440 | 0.648 | 3.18
25 | NB13 (neuroblastoma, adherent) | 0.99 | > 10200 | 0.453 | 4.84 | 0.65 | 1580 | 0.99 | > 10200 | 0.17 | 117 | 0.459 | 0.98
26 | NB14 (neuroblastoma, adherent) | 0.988 | > 10200 | 0.986 | > 102 | 0.989 | > 10200 | 0.988 | > 10200 | 0.327 | 341 | 0.761 | 6.72
27 | NB69 (neuroblastoma, adherent) | 0.976 | > 10200 | 0.873 | 79.9 | 0.748 | 2970 | 0.984 | > 10200 | 0.111 | 68.3 | 0.557 | 1.75
28 | NB(TU)1-10 (neuroblastoma, adherent) | 0.993 | > 10200 | 0.979 | > 102 | 0.571 | 972 | 0.985 | > 10200 | 0.157 | 110 | 0.629 | 2.69
29 | NCI-H64 (small cell lung carcinoma, suspension) | 0.943 | > 10200 | 0.694 | 19 | 0.996 | > 10200 | 0.981 | > 10200 | 0.11 | 97.6 | 0.58 | 1.95
30 | NCI-H211 (small cell lung carcinoma, adherent) | 0.979 | > 10200 | 0.523 | 7.37 | 0.682 | 2030 | 0.962 | > 10200 | 0.157 | 91.7 | 0.841 | 13.3
31 | NCI-H322M (lung adenocarcinoma, suspension) | 0.972 | > 10200 | 0.976 | > 102 | 0.95 | > 10200 | 0.975 | > 10200 | 0.986 | > 16000 | 0.926 | > 20
32 | NCI-H345 (small cell lung carcinoma, suspension) | 0.99 | > 10200 | 0.871 | > 102 | 0.922 | > 10200 | 0.99 | > 10200 | 0.844 | 12300 | 0.794 | 9.78
33 | NCI-H510A (small cell lung carcinoma, semi-adherent) | 0.978 | > 10200 | 0.471 | 5.36 | 0.669 | 1810 | 0.987 | > 10200 | 0.567 | 1500 | 0.617 | 2.55
34 | NCI-H524 (small cell lung carcinoma, suspension) | 0.987 | > 10200 | 0.564 | 9.36 | 0.99 | > 10200 | 0.986 | > 10200 | 0.828 | 8510 | 0.829 | 10.7
35 | NCI-H716 (large intestine, suspension) | 0.947 | > 10200 | 0.979 | > 102 | 0.891 | > 10200 | 0.975 | > 10200 | 0.589 | 1860 | 0.906 | > 20
36 | NCI-H720 (lung carcinoid, suspension) | 0.979 | > 10200 | 0.981 | > 102 | 0.992 | > 10200 | 0.992 | > 10200 | 0.842 | 9890 | 0.808 | 9.31
37 | NCI-H747 (large intestine, adherent) | 0.911 | > 10200 | 0.653 | 18.8 | 0.944 | > 10200 | 0.924 | > 10200 | 0.262 | 177 | 0.361 | 0.474
38 | NCI-H748 (small cell lung carcinoma, suspension) | 0.973 | > 10200 | 0.792 | 61.2 | 0.792 | 6120 | 0.98 | > 10200 | 0.773 | 8020 | 0.628 | 3.12
39 | NCI-H847 (small cell lung carcinoma, adherent) | 0.993 | > 10200 | 0.54 | 8.05 | 0.555 | 880 | 0.981 | > 10200 | 0.491 | 950 | 0.586 | 2.05
40 | NCI-H1092 (small cell lung carcinoma, suspension) | 0.99 | > 10200 | 0.946 | > 102 | 0.943 | > 10200 | 0.979 | > 10200 | 0.634 | 2350 | 0.575 | 2.01
41 | NCI-H1155 (large cell lung carcinoma, suspension) | 0.99 | > 10200 | 0.935 | > 102 | 0.883 | 7600 | 0.99 | > 10200 | 0.753 | 4530 | 0.875 | 13.9
42 | NCI-H1304 (small cell lung carcinoma, suspension) | 0.987 | > 10200 | 0.816 | 62.6 | 0.987 | > 10200 | 0.988 | > 10200 | 0.592 | 1820 | 0.816 | 12.2

Reference: the supplement of paper PMC4967469
